# According to article PMC4336329 (PLoS ONE, 2015):
# In all, about 310,000 compounds went through this assay and about 2,200 (0.71%) showed an effect of 50% or more. Effects have a minus sign here. Some of the results follow.
# Molecular target: human ether-à-go-go-related gene (hERG) potassium channel (human, UniProt Q12809)
# Assay: primary screen, population patch clamp on CHO cells stably expressing hERG
# human ether-à-go-go-related gene (hERG) potassium channel, sequence (Q12809 whole entry, looked up): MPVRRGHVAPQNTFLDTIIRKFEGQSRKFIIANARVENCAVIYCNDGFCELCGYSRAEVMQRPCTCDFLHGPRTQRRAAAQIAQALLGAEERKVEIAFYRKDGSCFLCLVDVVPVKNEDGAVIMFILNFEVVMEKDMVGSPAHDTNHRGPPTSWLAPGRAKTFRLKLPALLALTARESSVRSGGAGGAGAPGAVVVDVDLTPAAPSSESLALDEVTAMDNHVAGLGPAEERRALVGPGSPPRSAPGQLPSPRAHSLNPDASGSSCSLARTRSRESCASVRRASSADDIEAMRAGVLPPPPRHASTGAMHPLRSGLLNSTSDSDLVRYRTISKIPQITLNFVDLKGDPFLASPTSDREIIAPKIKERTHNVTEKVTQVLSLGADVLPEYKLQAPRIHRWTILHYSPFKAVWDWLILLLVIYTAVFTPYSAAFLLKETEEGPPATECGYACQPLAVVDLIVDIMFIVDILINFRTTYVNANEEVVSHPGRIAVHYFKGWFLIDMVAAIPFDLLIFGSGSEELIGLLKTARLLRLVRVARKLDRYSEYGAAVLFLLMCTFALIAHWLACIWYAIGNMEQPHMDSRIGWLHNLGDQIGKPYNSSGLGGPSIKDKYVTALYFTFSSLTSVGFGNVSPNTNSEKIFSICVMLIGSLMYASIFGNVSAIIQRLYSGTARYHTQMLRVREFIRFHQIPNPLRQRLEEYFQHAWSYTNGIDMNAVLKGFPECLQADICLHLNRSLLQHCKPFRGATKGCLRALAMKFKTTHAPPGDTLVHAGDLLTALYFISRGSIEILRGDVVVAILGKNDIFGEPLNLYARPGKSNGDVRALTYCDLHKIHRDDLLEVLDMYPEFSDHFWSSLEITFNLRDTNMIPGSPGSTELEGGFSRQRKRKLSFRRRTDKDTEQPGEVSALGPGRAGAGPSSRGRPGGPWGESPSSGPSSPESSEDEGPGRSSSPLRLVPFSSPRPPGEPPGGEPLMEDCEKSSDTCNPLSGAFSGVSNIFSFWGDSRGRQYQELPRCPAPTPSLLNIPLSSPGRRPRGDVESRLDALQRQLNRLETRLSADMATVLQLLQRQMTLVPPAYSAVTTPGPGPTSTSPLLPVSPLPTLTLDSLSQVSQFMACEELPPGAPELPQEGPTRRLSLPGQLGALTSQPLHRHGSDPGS
row,SMILES,"hERG current change (%, negative = inhibition) at 1uM [%]"
1,Cc1c(C(=O)N2CCCC2)oc2c1-c1nn(CC(=O)NCCCN3CCCCC3)cc1CC2,17.6
2,COc1ccc(CNC(=O)COC(=O)c2cccs2)cc1,11.6
3,Cc1cc(C)n(CCNC(=O)CC2C(=O)NCCN2Cc2ccccc2C(F)(F)F)n1 (centres unmarked),12.4
4,COc1ccc(S(=O)(=O)N2CCN(CC(=O)Nc3ccccc3OC)CC2)cc1,4.98
5,C/C=C/COC(=O)c1[nH]c2c(c1C)C(=O)CC(c1ccco1)C2 (centres unmarked),2.64
6,COc1ccc(CCNC(=O)CSc2nccc(=O)[nH]2)cc1OC,15.2
7,CC(C)CCn1c(=O)c(C(=O)NCc2ccco2)c(O)c2ccccc21,16
8,COc1cccc(NC(=O)CN(C)S(=O)(=O)c2ccc3c(c2)NC(=O)CS3)c1,5.86
9,O=C(N/N=C\c1cc2c(cc1Cl)OCO2)c1ccc(Br)s1,11.1
10,CCOC(=O)c1ccccc1NC(=O)c1c(F)c(F)c(F)c(F)c1F,16.3
11,Cc1ccc2[nH]c(=O)c(-c3nc4c(C)cccn4c3NCc3ccco3)cc2c1,10.7
12,CC(C)OC(=O)CC1=NC(=O)CS1,11.8
13,N#CCSc1nnc(C2CCCCC2)n1-c1ccccc1,13.6
14,CCOC(=O)C(C)n1cnc2sc3c(c2c1=O)CCC3 (centres unmarked),3.97
15,CC1(C)CC(NS(=O)(=O)c2ccccc2)CC(C)(C)N1,3.34
16,CC(C)=CCN1CCN(Cc2c(C)nn(C)c2Cl)CC1CCO (centres unmarked),1.23
17,CN(C)CC(C)(C)CNC(=S)Nc1cc(S(=O)(=O)N2CCOCC2)ccc1Cl,5.81
18,S=c1[nH]nc(-c2ccco2)n1/N=C/c1ccccc1,13.2
19,CCN(CC)c1ccc2cc(NC(=O)CCC(=O)O)c(=O)oc2c1,16.4
20,COc1ccc(NC(C)=O)cc1C,3.41
21,Cc1ccc(NC(=O)CCNC(=O)c2ccco2)cc1F,9.22
22,Nc1c2c3c(sc2nc(=O)n1N)CCCC3,15.3
23,CCn1c(-c2cc(-c3cc(C)ccc3C)nc3ccccc23)n[nH]c1=S,8.52

row,SMILES,"hERG current change (%, negative = inhibition) at 1uM [%]"
1,O=[N+]([O-])c1cccnc1Sc1n[nH]c(-c2ccc(Cl)cc2)n1,12.1
2,CNC(=S)N1CCN(CCN=Cc2c(O)n(-c3ccc(C)cc3)c(=S)[nH]c2=O)CC1,14.8
3,O=C(NCCOCc1ccc(Cl)cc1)c1ncn[nH]1,13.6
4,CC12CCC(C(=O)N3CCN(c4ncccn4)CC3)(c3nc4ccccc4nc31)C2(C)C (centres unmarked),6.71
5,CN1C(=O)CC(c2ccccc2)CC1=O,13.3
6,O=C(NCC(=O)N1CCOCC1)c1ccccc1,15.7
7,Cc1ccc(S(=O)(=O)Nc2ccc3nc(C)sc3c2)cc1,17.1
8,N#CCSc1nnc(SCC#N)s1,11.6
9,O=C(Cc1cccs1)Nc1ccccc1F,6.26
10,Cc1ccccc1NC(=O)CCCSc1nc2ccccc2s1,6.68
11,O=[N+]([O-])c1ccc2nc(-c3ccccn3)[nH]c2c1,15.8
12,O=[N+]([O-])c1ccc(-c2c(-c3ccccc3)ncc3ccc(F)cc23)cc1,-0.962
13,COc1ccc(OC)c(-c2cc(C(=O)NCc3ccc(Cl)cc3)no2)c1,12.1
14,CCOc1ccc(S(=O)(=O)N2CCN(Cc3ccc4c(c3)OCO4)CC2)cc1Cl,5.35
15,CCCC(=O)N1CC(=O)Nc2ccc(C)cc2C1c1ccccc1 (centres unmarked),12.9
16,COc1ccc(Oc2ncnc3c2oc2ccc(Br)cc23)cc1,17.7
17,C/C(=N\OC(=O)c1ccc(C)cc1)c1sc(C)nc1C,-18.1
18,O=C(Nc1ccccc1C(F)(F)F)c1ccc(CN2CCC(Cc3ccccc3)CC2)cc1,-0.909
19,CCC(O)C(C)(C)C (centres unmarked),7.45
20,COc1cc(-c2nnc(SCC(=O)OC3CCCCC3)o2)cc(OC)c1OC,5.51
21,CCCCCNc1nc(N2CCCC2)c2c(c1C#N)CCN(C)C2,-32.1
22,COc1cc(S(=O)(=O)N(Cc2cccnc2)Cc2ccco2)ccc1-n1cnnn1,-10.7
23,Cc1ccc(N2CC(C(=O)NCc3cccs3)CC2=O)cc1C (centres unmarked),3.86

row,SMILES,"hERG current change (%, negative = inhibition) at 1uM [%]"
1,CC(=O)Nc1cc2c(cc1NC(=O)Cn1nnc(-c3ccc(C)o3)n1)OCCO2,10
2,COc1cccc(OC)c1CN1CCCC(C(=O)c2ccccc2SC)C1 (centres unmarked),-37.8
3,CC(c1nnc(SCC(=O)Nc2cccnc2Cl)n1-c1ccccc1)N(C)C (centres unmarked),11.4
4,COc1ccccc1C(=O)Nc1ccc(-c2nnn(CC(=O)N3CCOCC3)n2)cc1,12.3
5,Cc1ccc(-c2noc(COC(=O)c3ccco3)n2)cc1,3.59
6,CC(C)CN1CCN(Cc2cnc(-c3ccc(Cl)cc3)nc2)CC1CCO (centres unmarked),-7.6
7,COC(=O)c1ccc(CN2CCCCC2)cc1,7.99
8,CN(C)S(=O)(=O)c1ccc(C(=O)NCc2cccs2)cc1,4.65
9,O=C1CC(C(=O)O)c2ccccc2N1 (centres unmarked),3.27
10,C/C(=N\N(c1ccccc1)c1ccccc1)c1ccc(O)cc1,13.6
11,CSc1ccccc1NC(=O)c1cccnc1,14.7
12,Cc1c(CCOC(=O)C23CC4CC(CC(C4)C2)C3)sc[n+]1Cc1ccccc1.[Cl-],2.1
13,O=C(CN1CCN(c2ccccc2)CC1)NCc1ccc(F)cc1,1.22
14,COP(=O)(OC)C(Nc1ccc([N+](=O)[O-])cc1)c1ccccc1 (centres unmarked),-11.9
15,CCOc1ccc(S(=O)(=O)N(C)c2ccc(OCC(=O)Nc3nc4ccccc4s3)cc2)cc1,7.03
16,CCOC(=O)C1C(=O)CC(C)(O)C(C(=O)OCC)C1c1ccc(SC)cc1 (centres unmarked),8.99
17,CC(Sc1nc2ccccc2s1)C(=O)Nc1nnc(C(C)C)s1 (centres unmarked),-4.35
18,Cc1ccc(S(=O)(=O)N2CCCC2C(=O)NC2CCCCC2)cc1 (centres unmarked),12.7
19,CCNc1nc(NC(C)C)nc(OCCOC(=O)c2ccccc2)n1,-2.62
20,O=C(NCCCN1CCCC1=O)Nc1ccc([N+](=O)[O-])cc1,11
21,Cc1coc2c(C)c3oc(=O)c(CC(=O)N[C@@H](CC(C)C)C(=O)O)c(C)c3cc12,13
22,Cl.c1ccc(-c2ccc(CNC3CC3)cc2)cc1,13.2
23,O=C(Nc1nncs1)c1cc(S(=O)(=O)N2CCOCC2)ccc1Cl,12.6

row,SMILES,"hERG current change (%, negative = inhibition) at 1uM [%]"
1,N#Cc1c(-c2ccccc2F)cc(-c2cccnc2)nc1N,10.9
2,CCOC(=O)c1c(NC(=O)CN2C(=O)NC3(CCCCC3C)C2=O)sc(C)c1CC (centres unmarked),10
3,Cc1ccc(C(=O)NNC(=O)C2CCN(c3nccc(C)n3)CC2)cc1,11.3
4,CC(=O)c1ccc(OCC(=O)NC2CCS(=O)(=O)C2)cc1 (centres unmarked),16
5,COc1cc(/C=C/C(=O)OCC(=O)Nc2cc(S(=O)(=O)N(C)C)ccc2Cl)ccc1O,-1.61
6,CC(=O)NCc1nnc2c3ccccc3c(-c3ccccc3)nn12,3.53
7,COc1cc(OC)cc(C(=O)Nc2ccc(S(=O)(=O)Nc3ncccn3)cc2)c1,7.99
8,CCOc1ccc(NS(=O)(=O)c2cc(OCC(N)=O)c(C)cc2Cl)cc1,0.683
9,S=C(NCCCc1ccccc1)Nc1ccccc1,14.8
10,COc1ccc(-c2n[nH]c(C)c2-c2cnn(-c3ccccc3)c2)c(O)c1C,6.58
11,N#CC1=CN(Cc2ccccc2)C=C(/C=N/Nc2ccccc2)C1,10.3
12,CSc1ncccc1C(=O)NCC(c1cccs1)N1CCOCC1 (centres unmarked),7.38
13,O=C(OC1CCOC1=O)c1cccc(S(=O)(=O)Nc2cccc(Cl)c2)c1 (centres unmarked),4.36
14,Clc1ccc(C2=NN=C3COc4ccccc4N3C2)cc1,-1.19
15,C/C(=N\NC(=O)c1c(Cl)c(C)nn1C)c1cccc(NC(=O)C2CCCC2)c1,2.36
16,COc1ccc(-c2cccc(NC(=O)c3cccs3)c2)nn1,14.4
17,COC(=O)c1cc(NC(=O)C2CC2)cc(C(=O)OC)c1,4.46
18,Cc1ccc(-c2cc(C(=O)O)c3sc(N4CCCCC4)nc3n2)cc1,14.2
19,O=C(NCC1CCCO1)c1ccc(NC(=O)C2C3C=CC(C3)C2C(=O)O)cc1 (centres unmarked),-0.304
20,CC1(C)NC(=O)N(CC(O)CN(c2ccccc2)S(=O)(=O)c2ccccc2)C1=O (centres unmarked),1.26
21,O=C(Cn1c(O)c(/C=C2\C=Nc3ccccc32)sc1=O)Nc1ccc2c(c1)OCO2,4
22,COc1cc2cc(C(c3nnnn3Cc3ccc(F)cc3)N3CCCCCC3)c(=O)[nH]c2cc1OC (centres unmarked),-33.3
23,Nc1ccc(C(=O)OCC(=O)NC2CCS(=O)(=O)C2)cc1[N+](=O)[O-] (centres unmarked),-0.0043
